The target in test [1] is T1, Slx4 C-terminal conserved domain, residues 352-419 (S. pombe) (UniProt Q9P6M0).
T1 sequence: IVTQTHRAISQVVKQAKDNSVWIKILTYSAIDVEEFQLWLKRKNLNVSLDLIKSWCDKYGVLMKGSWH
The test is described as follows: SEC; analytical size-exclusion chromatography of the purified, co-expressed complex; both purified.

The target of test [2] is T1, Slx4 C-terminal conserved domain, residues 352-419 (S. pombe). The test is described as follows: crystal structure; sitting drop, 18 °C, 1.3 M ammonium sulfate, 0.1 M Bis-Tris pH 6.8; zinc SAD; 2.0 Å; both purified.
The target of test [3] is T2, mature Pmt3 (S. pombe SUMO), residues 1-111 (S. pombe) (UniProt O13351).
T2 sequence: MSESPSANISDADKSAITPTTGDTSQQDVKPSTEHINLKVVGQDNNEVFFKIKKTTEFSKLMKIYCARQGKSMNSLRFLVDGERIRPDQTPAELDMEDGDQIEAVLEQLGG
Nature of the test: condition: 0.81 mM complex with 0.27 mM Pmt3 (molar ratio 1:3); NMR titration; 2D 15N HSQC of 0.27 mM 15N-labelled Pmt3 with 0 to 0.81 mM complex; 298 K; 20 mM sodium phosphate pH 6.8, 100 mM NaCl, 10% D2O; both purified.

Test [4] concerns the target T3, Slx1^(RING+CT SIMmut)-Slx4^CCD complex (S. pombe) (UniProt Q9P7M3+Q9P6M0).
T3 sequence 1: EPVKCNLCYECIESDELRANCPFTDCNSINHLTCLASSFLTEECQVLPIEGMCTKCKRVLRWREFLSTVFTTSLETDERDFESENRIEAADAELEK
T3 sequence 2: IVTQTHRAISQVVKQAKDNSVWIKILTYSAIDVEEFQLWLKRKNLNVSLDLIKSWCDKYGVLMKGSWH
The test is described as follows: condition: 2.37 mM Pmt3 injected into 120 μM complex; ITC; 2.37 mM Pmt3 injected into 120 μM complex in the cell; 25 °C; 20 mM sodium phosphate pH 6.8, 100 mM NaCl; three repeats; both purified.

The target of test [5] is T4, Slx1^RING-Slx4^CCD complex (S. pombe) (UniProt Q9P7M3+Q9P6M0).
T4 sequence 1: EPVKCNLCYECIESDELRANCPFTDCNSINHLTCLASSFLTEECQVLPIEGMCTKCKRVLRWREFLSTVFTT
T4 sequence 2: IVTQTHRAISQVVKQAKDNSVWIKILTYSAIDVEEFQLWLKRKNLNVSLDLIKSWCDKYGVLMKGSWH
The test is described as above.

Test [6] addresses T1, Slx4 C-terminal conserved domain, residues 352-419 (S. pombe). Nature of the test: co-purification; co-expressed in E. coli; HisTrap capture by His6-Slx4^CCD, thrombin cleavage, gel filtration, anion exchange (similar procedure).

These are yes or no findings as the source states them, for the method shown. Some binding calls cover weakened binding; strength is not graded here.

B1: Slx1 C-terminal zinc finger (RING finger domain), residues 176-247 (domain or fragment, UniProt Q9P7M3 176-247)
chain: EPVKCNLCYECIESDELRANCPFTDCNSINHLTCLASSFLTEECQVLPIEGMCTKCKRVLRWREFLSTVFTT
Turning to B1, the binding result in test [1] and in test [2] was “binds” in each case.

B2: Slx1^RING-Slx4^CCD complex (complex, UniProt Q9P7M3 176-247; Q9P6M0 352-419)
chain 1: EPVKCNLCYECIESDELRANCPFTDCNSINHLTCLASSFLTEECQVLPIEGMCTKCKRVLRWREFLSTVFTT
chain 2: IVTQTHRAISQVVKQAKDNSVWIKILTYSAIDVEEFQLWLKRKNLNVSLDLIKSWCDKYGVLMKGSWH
In the case of B2, in test [3], the binding entry was “no binding”.

B3: mature Pmt3 (S. pombe SUMO), residues 1-111 (natural protein, UniProt O13351 1-111, looked up)
chain: MSESPSANISDADKSAITPTTGDTSQQDVKPSTEHINLKVVGQDNNEVFFKIKKTTEFSKLMKIYCARQGKSMNSLRFLVDGERIRPDQTPAELDMEDGDQIEAVLEQLGG
notes: Pmt3 (SUMO), Schizosaccharomyces pombe, mature form, residues 1-111; Uniformly 15N-labelled for the NMR titrations; source: E. coli, purified by a procedure similar to that of the complex
For B3, the binding entry in test [4] and in test [5] was “no binding” in each case.

B4: C-terminal domain of Slx1, residues 176-271 (domain or fragment, UniProt Q9P7M3 176-271)
chain: EPVKCNLCYECIESDELRANCPFTDCNSINHLTCLASSFLTEECQVLPIEGMCTKCKRVLRWREFLSTVFTTSLETDERDFESENRIEIIDLELEK
B4: in test [6], the binding entry is “binds”.

B5: Slx1^(RING+CT SIMmut)-Slx4^CCD complex (complex, UniProt Q9P7M3 176-271; Q9P6M0 352-419)
chain 1: EPVKCNLCYECIESDELRANCPFTDCNSINHLTCLASSFLTEECQVLPIEGMCTKCKRVLRWREFLSTVFTTSLETDERDFESENRIEAADAELEK
chain 2: IVTQTHRAISQVVKQAKDNSVWIKILTYSAIDVEEFQLWLKRKNLNVSLDLIKSWCDKYGVLMKGSWH
As to B5, in test [3], the binding entry is listed as “no binding”.

B6: C-terminal domain of Slx1, residues 176-271, IIDLE mutated to AADAE (domain or fragment, UniProt Q9P7M3 176-271)
chain: EPVKCNLCYECIESDELRANCPFTDCNSINHLTCLASSFLTEECQVLPIEGMCTKCKRVLRWREFLSTVFTTSLETDERDFESENRIEAADAELEK
As to B6, in test [6], the binding result is recorded as “binds”.

These data come from PMC4726241, “Crystal structure and SUMO binding of Slx1-Slx4 complex” (Scientific Reports, 2016).
